The text below walks through data of PubChem BioAssay AID1745853 (National Center for Advancing Translational Sciences (NCATS), 2022).

What all share (test): Primary Screen for Target Class Profiling of Small Molecule Inhibitors of Methyltransferases
The target of assay [1] is Glycine N-methyltransferase (Homo sapiens) (UniProt Q14749). The note with it: purified enzyme, MTase-Glo SAH luminescence; measured here: GNMT inhibition; at 40 µM; stronger effect = lower value. In short, it runs like this:
(§1)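 Each enzyme was reacted with SAM and its substrate, with compounds tested once at 40 uM; SAH formed was read by MTase-Glo luminescence.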

The target of assay [2] is Guanidinoacetate N-methyltransferase (Homo sapiens) (UniProt Q14353). The note with it: purified enzyme, MTase-Glo SAH luminescence; measured here: GAMT inhibition; at 40 µM; stronger effect = lower value. A digest of the protocol:
as §1

Assay [3] has as its target Histamine N-methyltransferase (Homo sapiens) (UniProt P50135). The note with it: purified enzyme, MTase-Glo SAH luminescence; measured here: HNMT inhibition; at 40 µM; stronger effect = lower value. In short, it runs like this: as §1
Assay [4] concerns the target Nicotinamide N-methyltransferase (Homo sapiens) (UniProt P40261). To be noted: purified enzyme, MTase-Glo SAH luminescence; measured here: NNMT inhibition; at 40 µM; stronger effect = lower value. In short, it runs like this:
as §1

The target in assay [5] is Phenylethanolamine N-methyltransferase (Homo sapiens) (UniProt P11086). The note with it: purified enzyme, MTase-Glo SAH luminescence; measured here: PNMT inhibition; at 40 µM; stronger effect = lower value. In short, it runs like this:
as §1

Some of the results follow. Further columns of the screen follow, without active or inactive calls.
% is set by controls: 0 for no effect and ±100 for the full control effect.

For `CCC(C)NC(=O)Cn1nc2n(Cc3ccccc3)c(=O)c3ccc(C(=O)NC(C)C)cc3n2c1=O` (stereo not given), the activity change, negative = inhibition is -4.47% in assay [1]; 2.46% in assay [2]; 1% in assay [3]; -6.32% in assay [4]; -6.53% in assay [5].

Consider `CC(O)(C#Cc1ccc2c(c1)N(c1nc(N)ncc1Cl)CC2)c1nccs1` (stereo not given), for which the activity change, negative = inhibition is -28% in assay [1]; -6.57% in assay [2]; -17.1% in assay [3]; -48.3% in assay [4]; -12.3% in assay [5].

Take `COc1ccc([C@H]2CNC(=O)C2)cc1OC1CCCC1`: the activity change, negative = inhibition is 4.28% in assay [1]; -1.02% in assay [2]; 1.86% in assay [3]; -14.7% in assay [4]; -3.99% in assay [5].

Turning to `CC(C)OCCCn1c(=O)c2ccccc2n2c(=O)n(CC(=O)c3cccc(Cl)c3)nc12`, the activity change, negative = inhibition is -9.02% in assay [1]; 4.54% in assay [2]; -0.9% in assay [3]; -21.6% in assay [4]; -3.58% in assay [5].

For the compound `CC1(C(=O)NC2CCCCC2)Cn2c(ccc2-c2ccco2)C(=O)N1Cc1ccccc1F` (stereo not given), the activity change, negative = inhibition is -1.01% in assay [1]; 3.57% in assay [2]; 4.84% in assay [3]; 1.32% in assay [4]; -0.491% in assay [5].

Turning to `COC(=O)c1ncn2c1C(=O)N(Cc1ccc(OC)cc1OC)C(C)(C(=O)NC1CCCCCC1)C2` (stereo not given), the activity change, negative = inhibition was 2.51% in assay [1]; 2.84% in assay [2]; 3.35% in assay [3]; -17.8% in assay [4]; 0.849% in assay [5].

Consider `Cc1cc(C)cc(NC(=O)CN(C)S(=O)(=O)c2ccc3[nH]c4c(c3c2)CCCC4)c1`, for which the activity change, negative = inhibition is -5.15% in assay [1]; 3.8% in assay [2]; -4.36% in assay [3]; -2.14% in assay [4]; 0.266% in assay [5].

With `N#Cc1ccc(N2N=C3c4ccc(C(=O)O)cc4CC[C@@H]3[C@@H]2C2CCCC2)cc1Cl`, the activity change, negative = inhibition in assay [1] was -49.6%; in assay [2] it was -84.3%; in assay [3] it was -9.52%; in assay [4] it was -86.4%; in assay [5] it was -54.6%.

On to `C=C1CCC2(C(=O)OC3OC(CO)C(O)C(O)C3O)CCC3(C)C(=CCC4C5(C)CCC(OC6OC(CO)C(OC7OC(C)C(O)C(O)C7O)C(OC7OCC(O)C(O)C7O)C6O)C(C)(C)C5CCC43C)C2C1` (stereo not given), for which the activity change, negative = inhibition in assay [1] worked out at 3.16%; in assay [2], 17.2%; in assay [3] it was 8.22%; in assay [4], 5.76%; in assay [5] it was 6.61%.

As for `COC(=O)c1ncn2c1C(=O)N(Cc1ccccc1Cl)C(C)(C(=O)NC1CCCCCC1)C2` (stereo not given), the activity change, negative = inhibition in assay [1] amounted to 4.55%; in assay [2] it was 0.988%; in assay [3], 5.67%; in assay [4], 5.79%; in assay [5], 0.12%.

Regarding `Cc1cc2c(cc3n2CC(C)(C(=O)NC2CCCCCCC2)N(CCCc2ccccc2)C3=O)o1` (stereo not given), the activity change, negative = inhibition was -14.1% in assay [1]; -1.87% in assay [2]; -4.16% in assay [3]; -11.5% in assay [4]; -11.7% in assay [5].

Regarding `O=C(NC(Cc1c[nH]c2ccccc12)c1nc2ccccc2[nH]1)c1ccccc1` (stereo not given), the activity change, negative = inhibition in assay [1] was -25.5%; in assay [2], 4.38%; in assay [3], 1.59%; in assay [4] it was 2.76%; in assay [5], -6.5%.

On to `Cc1ccc(C(=O)Nc2noc3ccccc23)cc1`, for which the activity change, negative = inhibition was -29% in assay [1]; -38.2% in assay [2]; -25.8% in assay [3]; -48.6% in assay [4]; -37.6% in assay [5].

With `COc1ccc(N2CCN(C(=O)COc3cccc(-c4nnc5n4CCCC5)c3)CC2)cc1`, the activity change, negative = inhibition in assay [1] is -11.6%; in assay [2] it was -12.5%; in assay [3] it was -7.4%; in assay [4], -15.2%; in assay [5] it was -12%.

Regarding `Cc1ccc(CN2C(=O)c3cc4sccc4n3CC2(C)C(=O)NC2CCCCCC2)cc1` (stereo not given), the activity change, negative = inhibition in assay [1] was -0.594%; in assay [2], 5.2%; in assay [3], -0.418%; in assay [4], -5.41%; in assay [5], -4.33%.

Turning to `CCC(C)NC(=O)c1ccc2c(=O)n(CCC(C)C)c3nn(Cc4ccccc4C)c(=O)n3c2c1` (stereo not given), the activity change, negative = inhibition in assay [1] amounted to 4.9%; in assay [2], 0%; in assay [3], 4.94%; in assay [4], 6.39%; in assay [5], 5.18%.

For the compound `O=C(CSc1nnc2n(CCc3ccccc3)c(=O)c3ccccc3n12)Nc1cc(F)ccc1F`, the activity change, negative = inhibition in assay [1] is 4.28%; in assay [2], 7.53%; in assay [3], 7.46%; in assay [4] it was 3.66%; in assay [5] it was 3.92%.

Turning to `CCOC(=O)c1cnn(-c2ccc(NC(=O)C(Cl)=C(Cl)Cl)cc2)c1C(F)(F)F`, the activity change, negative = inhibition in assay [1] was 0.423%; in assay [2] it was -17.5%; in assay [3] it was 9.3%; in assay [4], -17.3%; in assay [5], -2.62%.

For `CCOC(=O)c1cc2n(n1)CC(C)(C(=O)NCCCOC)N(c1ccc(C)cc1C)C2=O` (stereo not given), the activity change, negative = inhibition in assay [1] stood at 10.8%; in assay [2] it was 1.07%; in assay [3], 10.4%; in assay [4], 14%; in assay [5], 10.4%.

On to `O=C(c1ccc(-c2ccc(O)cc2)cc1)N1CCOC2(CNCCOC2)C1` (stereo not given), for which the activity change, negative = inhibition in assay [1] is -6.33%; in assay [2] it was -11%; in assay [3], -5.56%; in assay [4], -7.93%; in assay [5], -12.3%.

On to `CCCCN1C(=O)CSc2c(c3ccccc3n2C)C1C(=O)NCCC(C)C` (stereo not given), for which the activity change, negative = inhibition in assay [1] stood at 13.9%; in assay [2], 0%; in assay [3] it was 7.12%; in assay [4] it was 7.24%; in assay [5], 10.3%.

`COCCCNC(=O)C(NC(=O)C1CC1)C1CCN(C(=O)c2ccc(C)cc2)CC1` (stereo not given): the activity change, negative = inhibition in assay [1] was -2.22%; in assay [2], -2.63%; in assay [3], 1.95%; in assay [4] it was -4.43%; in assay [5], -4.96%.

In the case of `CCN1C(=O)c2cc(-c3ccc(OC)cc3)nn2CC1(C)C(=O)NCc1ccccc1OC` (stereo not given), the activity change, negative = inhibition stood at 1.26% in assay [1]; 0% in assay [2]; 8.43% in assay [3]; 11.8% in assay [4]; 3.39% in assay [5].

Regarding `c1ccc(OCCNc2nc(-c3cccnc3)nc3c2CCNCC3)cc1`, the activity change, negative = inhibition in assay [1] was -10.9%; in assay [2], -2.6%; in assay [3], -15.8%; in assay [4] it was -7.46%; in assay [5], -3.93%.

Take `COc1cc(OC)c(NS(=O)(=O)c2ccc3c(c2)n(C)c(=O)n3C)cc1Cl`: the activity change, negative = inhibition in assay [1] is -5.2%; in assay [2], 2.5%; in assay [3] it was -0.17%; in assay [4], -0.887%; in assay [5] it was -3.27%.

For `COc1ccc(OC2CCN(C(C)=O)CC2)c(C(=O)NCCc2ccccc2OC)c1`, the activity change, negative = inhibition in assay [1] is -2.46%; in assay [2] it was 0.484%; in assay [3], -1.99%; in assay [4], -3.25%; in assay [5], 0.924%.

In the case of `O=C(Cn1c(=O)c2ccc(Cl)cc2n2nncc12)NCc1ccc2c(c1)OCO2`, the activity change, negative = inhibition is -5.71% in assay [1]; 1.24% in assay [2]; 8.19% in assay [3]; -3.94% in assay [4]; -1.92% in assay [5].

As for `CCC(O)C1CCN(C(=O)c2cnn3cc(CN(CC)CC)cnc23)CC1` (stereo not given), the activity change, negative = inhibition in assay [1] is -5.28%; in assay [2], -14.2%; in assay [3], -10.6%; in assay [4], -17.7%; in assay [5] it was -19.6%.
